This is one part of the list.
Tests used:
Assay in all cases: glycan array binding signal (z-score within array); higher = stronger binding
Conditions in all cases: glycan notation: IUPAC condensed, linker removed
[1] = biological target: Neu5Ac(a2-3)Gal(b1-4)GlcNAc6S
Outline: (§1)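 Glycan array binding is given as a within-array Z-score, which can be read as non-binding when negative. The arrays, 3228 of them, came from the Consortium for Functional Glycomics database and were retained only where the protein sequence was available. Z-scores were averaged across arrays of the same protein sequence at different concentrations or buffers and across linkers.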

[2] = biological target: Neu5Ac(a2-3)Gal(b1-4)[Fuc(a1-3)]GlcNAc
Outline: as §1

[3] = biological target: Neu5Ac(a2-3)Gal(b1-4)[Fuc(a1-3)]GlcNAc(b1-3)Gal
Outline: as §1

[4] = biological target: Neu5Ac(a2-3)Gal(b1-4)[Fuc(a1-3)]GlcNAc(b1-3)Gal(b1-4)GlcNAc
Outline: as §1

[5] = biological target: Neu5Ac(a2-3)Gal(b1-4)[Fuc(a1-3)]GlcNAc(b1-3)Gal(b1-4)[Fuc(a1-3)]GlcNAc(b1-3)Gal(b1-4)[Fuc(a1-3)]GlcNAc
Outline: as §1

[6] = biological target: Neu5Ac(a2-3)Gal(b1-4)[Fuc(a1-3)]GlcNAc6S
Outline: as §1

[7] = biological target: Neu5Ac(a2-3)Gal6S(b1-4)GlcNAc
Outline: as §1

[8] = biological target: Neu5Ac(a2-3)Gal6S(b1-4)[Fuc(a1-3)]GlcNAc
Outline: as §1

[9] = biological target: Neu5Ac(a2-3)GalNAc
Outline: as §1

[10] = biological target: Neu5Ac(a2-3)GalNAc(b1-4)GlcNAc
Outline: as §1

[11] = biological target: Neu5Ac(a2-3)[GalNAc(b1-4)]Gal(b1-4)Glc
Outline: as §1

[12] = biological target: Neu5Ac(a2-3)[GalNAc(b1-4)]Gal(b1-4)GlcNAc
Outline: as §1

[13] = biological target: Neu5Ac(a2-3)[Neu5Ac(a2-6)]GalNAc
Outline: as §1

[14] = biological target: Neu5Ac(a2-6)Gal
Outline: as §1

[15] = biological target: Neu5Ac(a2-6)Gal(b1-4)Glc
Outline: as §1

[16] = biological target: Neu5Ac(a2-6)Gal(b1-4)GlcNAc
Outline: as §1

[17] = biological target: Neu5Ac(a2-6)Gal(b1-4)GlcNAc(b1-3)Gal(b1-4)GlcNAc
Outline: as §1

[18] = biological target: Neu5Ac(a2-6)Gal(b1-4)GlcNAc(b1-3)Gal(b1-4)[Fuc(a1-3)]GlcNAc(b1-3)Gal(b1-4)[Fuc(a1-3)]GlcNAc
Outline: as §1

[19] = biological target: Neu5Ac(a2-6)Gal(b1-4)GlcNAc6S
Outline: as §1

[20] = biological target: Neu5Ac(a2-6)GalNAc
Outline: as §1

[21] = biological target: Neu5Ac(a2-6)GalNAc(b1-4)GlcNAc
Outline: as §1

[22] = biological target: Neu5Ac(a2-8)Neu5Ac
Outline: as §1

[23] = biological target: Neu5Ac(a2-8)Neu5Ac(a2-3)Gal(b1-4)Glc
Outline: as §1

[24] = biological target: Neu5Ac(a2-8)Neu5Ac(a2-3)[GalNAc(b1-4)]Gal(b1-4)Glc
Outline: as §1

[25] = biological target: Neu5Ac(a2-8)Neu5Ac(a2-8)Neu5Ac
Outline: as §1

[26] = biological target: Neu5Ac(a2-8)Neu5Ac(a2-8)Neu5Ac(a2-3)Gal(b1-4)Glc
Outline: as §1

[27] = biological target: Neu5Ac(a2-8)Neu5Ac(a2-8)Neu5Ac(a2-3)[GalNAc(b1-4)]Gal(b1-4)Glc
Outline: as §1

[28] = biological target: Neu5Ac(a2-8)Neu5Ac(a2-8)Neu5Ac(a2-8)Neu5Ac(a2-3)[GalNAc(b1-4)]Gal(b1-4)Glc
Outline: as §1

[29] = biological target: Neu5Ac(b1-6)GalNAc
Outline: as §1

[30] = biological target: Neu5Ac(b2-6)Gal(b1-4)GlcNAc
Outline: as §1

[31] = biological target: Neu5Ac9Ac(a2-6)Gal(b1-4)GlcNAc
Outline: as §1

[32] = biological target: Neu5Gc(a2-3)Gal(b1-3)GlcNAc
Outline: as §1

[33] = biological target: Neu5Gc(a2-3)Gal(b1-3)[Fuc(a1-4)]GlcNAc
Outline: as §1

[34] = biological target: Neu5Gc(a2-3)Gal(b1-4)Glc
Outline: as §1

[35] = biological target: Neu5Gc(a2-3)Gal(b1-4)GlcNAc
Outline: as §1

[36] = biological target: Neu5Gc(a2-3)Gal(b1-4)[Fuc(a1-3)]GlcNAc
Outline: as §1

[37] = biological target: Neu5Gc(a2-6)Gal(b1-4)GlcNAc
Outline: as §1

[38] = biological target: Neu5Gc(a2-6)GalNAc
Outline: as §1

B1: F17eG (Escherichia coli), Q9RH92 (protein)
chain: MTNFYKVFLAVFILVCCNISHAAVSFIGSTENDVGPSQSSYSRTHAMDNLPFVYNTGYNIGYQNANVWRISGGFCVGLDGKVDLPVVGSLDGQSIYGLTEEVGLLIWMGDTNYSRGTAMSGNSWENVFSGWCVGNYVSTQGLSVHVRPVILKRNSSAQYSVQKTSIGSIRMRPYNGSSAGSVQTTVNFSLNPFTLNDTVTSCRLLTPSAVNVSLAAISAGQLPSSGDEVVAGTTSLKLQCDAGVTVWATLTDATTPSNRSDILTLTGASTATGVGLRIYKNTDSTPLKFGPDSPVKGNENQWQLSTGTETSPSVRLYVKYVNTGEGINPGTVNGISTFTFSYQ
glycan array binding signal (z-score) [1]: -0.317
glycan array binding signal (z-score) [2]: -0.317
glycan array binding signal (z-score) [3]: -0.317
glycan array binding signal (z-score) [4]: -0.304
glycan array binding signal (z-score) [5]: -0.297
glycan array binding signal (z-score) [6]: -0.313
glycan array binding signal (z-score) [7]: -0.312
glycan array binding signal (z-score) [8]: -0.085
glycan array binding signal (z-score) [9]: -0.318
glycan array binding signal (z-score) [10]: -0.311
glycan array binding signal (z-score) [11]: -0.298
glycan array binding signal (z-score) [12]: -0.306
glycan array binding signal (z-score) [13]: -0.208
glycan array binding signal (z-score) [14]: -0.314
glycan array binding signal (z-score) [15]: -0.308
glycan array binding signal (z-score) [16]: -0.197
glycan array binding signal (z-score) [17]: -0.305
glycan array binding signal (z-score) [18]: -0.299
glycan array binding signal (z-score) [19]: -0.307
glycan array binding signal (z-score) [20]: -0.31
glycan array binding signal (z-score) [21]: -0.212
glycan array binding signal (z-score) [22]: -0.32
glycan array binding signal (z-score) [23]: -0.287
glycan array binding signal (z-score) [24]: -0.321
glycan array binding signal (z-score) [25]: -0.317
glycan array binding signal (z-score) [26]: -0.318
glycan array binding signal (z-score) [27]: -0.278
glycan array binding signal (z-score) [28]: -0.31
glycan array binding signal (z-score) [29]: -0.287
glycan array binding signal (z-score) [30]: -0.318
glycan array binding signal (z-score) [31]: -0.302
glycan array binding signal (z-score) [32]: -0.31
glycan array binding signal (z-score) [33]: -0.286
glycan array binding signal (z-score) [34]: -0.299
glycan array binding signal (z-score) [35]: -0.293
glycan array binding signal (z-score) [36]: -0.31
glycan array binding signal (z-score) [37]: -0.16
glycan array binding signal (z-score) [38]: -0.309
